# Assay results published in the supplement of paper PMC3334620.
# The full ranking holds about 33,000 sequences; the median of “E-score (-0.5 to 0.5)” is about -0.013, and the highest 2% start at about 0.3. The list shows a part of the results.
# Biological target: T1, Msn1 (UniProt P22148)
# T1 sequence: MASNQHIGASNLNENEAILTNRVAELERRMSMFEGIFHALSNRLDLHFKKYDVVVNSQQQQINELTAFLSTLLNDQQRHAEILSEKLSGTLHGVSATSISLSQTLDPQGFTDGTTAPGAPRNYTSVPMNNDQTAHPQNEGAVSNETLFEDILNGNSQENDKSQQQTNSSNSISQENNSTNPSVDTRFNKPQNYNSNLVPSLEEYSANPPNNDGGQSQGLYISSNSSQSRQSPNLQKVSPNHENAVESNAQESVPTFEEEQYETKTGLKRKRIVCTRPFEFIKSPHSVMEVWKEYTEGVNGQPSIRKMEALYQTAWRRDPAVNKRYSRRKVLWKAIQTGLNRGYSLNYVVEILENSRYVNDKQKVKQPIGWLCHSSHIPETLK
# Experiment: PBM E-score (8-mer binding enrichment) (E-score (-0.5 to 0.5)); higher = stronger / more preferred TF binding; most listed sequences are background and not binding sites
# Conditions: protein concentration: 200 nM; construct: GST-full length
# How it was run: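 Detection of bound protein used fluorescent anti-GST, with scans normalised by masliner. The proteins were GST-tagged yeast transcription factors applied at about 100-200 nM to universal all-10-mer Agilent arrays made double-stranded by primer extension. Each ungapped eight-base word, pooled with its reverse complement, was scored with an E-score from the Universal PBM Analysis Suite.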
row,Sequence,PBM E-score
1,CTCAAGGC,-0.171
2,ATACACTC,0.064
3,GTGAGGGA,-0.164
4,TAAGCACA,0.118
5,AATTCTGA,0.112
6,GTCCTCAA,0.267
7,CGGGTCCC,-0.301
8,GGTTTGGA,0.00891
9,ACAGCCGG,0.00237
10,ACCAAGCA,0.0329
11,CATATTAA,0.32
12,CCATTTTC,0.136
13,AGTTATGC,0.0335
14,ACCGCCTA,-0.0385
15,ACAGCACC,-0.146
16,ACTGTTAC,-0.0545
17,AAGCTCGA,0.102
18,ATGTCTGA,0.425
19,CAGTGAAA,0.0564
20,AGTTATAA,0.0713
21,ATGTCGTG,0.337
22,CGCATGTA,0.0633
23,CGTACAAG,0.0872
24,CTAATTCA,0.00319
25,CTCCTTAC,-0.115

row,Sequence,PBM E-score
1,AGCGTCCT,-0.081
2,AGTTCCGC,0.0164
3,ACGAGGAT,-0.178
4,GTTTTTCA,0.109
5,ACATTAAC,0.254
6,CCCTCTTC,-0.288
7,ATTCCCAA,0.0317
8,GCGGGCCC,-0.236
9,GGTCCTTA,0.0291
10,AGATTCCG,0.151
11,ACTGCTCA,-0.0561
12,ATCGCATA,0.0796
13,GAAAACCA,0.00945
14,ATGGGATA,0.0634
15,ATCCAAAT,0.0126
16,TGACTCAA,0.0492
17,ATTCAAGA,0.0718
18,GACGAACA,0.0827
19,AGAGAGCT,-0.241
20,CCAGGCCG,0.0204
21,CGCACATA,-0.196
22,CAAAAGGA,0.261
23,AGTTGGGG,-0.0303
24,GTCCTCAC,0.263
25,AAGTACAC,0.192

row,Sequence,PBM E-score
1,CTCGTCTA,-0.023
2,AACGGCTA,-0.0678
3,AAGCAATA,-0.0415
4,ATAGGCCC,-0.2
5,CGCTAGTC,-0.0714
6,GGCAGAAA,0.213
7,GAATAGCA,0.0221
8,GTAGTTTA,0.1
9,CCTTTTTC,-0.113
10,AGACAGTG,0.00899
11,AGAATTCT,0.242
12,CCTGTCGC,0.0187
13,ATGTCTGG,0.323
14,AGGGAATG,-0.0775
15,AGACTTTA,0.0848
16,GAAATCTA,-0.139
17,AGCACAGA,0.055
18,ACCTAACA,0.0355
19,CAAGGACG,0.148
20,ACTTGAGG,-0.0853
21,GCTGCACA,-0.161
22,GAAACGAC,0.088
23,ACCCCGTA,0.0488
24,AAAAAAAC,0.0568
25,GACTGTGC,-0.137

row,Sequence,PBM E-score
1,CCCCTGCG,-0.308
2,CCGACCCA,-0.0978
3,CGCCGGCA,-0.094
4,CAAAGGCC,-0.119
5,ACGGGCCA,-0.188
6,ACTGAACG,-0.0612
7,GTGACAGA,0.161
8,CTTGAGGC,-0.148
9,AACAGTAC,-0.0277
10,ACGCTGGC,-0.118
11,AAGTACGC,-0.0577
12,ATTGTACA,0.242
13,TTATGCAA,-0.0731
14,CAGATATA,0.106
15,CACGCTCC,-0.282
16,CGAATCCG,0.128
17,CCCCCCCG,-0.379
18,ATTCGCGA,0.0755
19,ATAGTCAT,0.0623
20,AAAAGCCT,-0.221
21,AGCCTTTC,-0.0837
22,GAAGTCAA,-0.105
23,ATTCAACA,-0.0659
24,AATCCTTA,-0.134
25,CCTTTAAC,0.125

row,Sequence,PBM E-score
1,AGCCTCCC,-0.265
2,ATACACTA,0.183
3,CCCGGGCC,-0.127
4,ATGTGGCG,-0.0986
5,GTGTATAA,-0.126
6,GCCCTCGC,-0.139
7,CCGACTGA,-0.00771
8,CACACTCA,0.102
9,CCGACGCC,-0.0386
10,AATAGGGT,0.0002
11,CCTGATTA,0.00881
12,AGATCGGA,0.254
13,ACAGTACA,0.189
14,AATTGTCC,0.488
15,ACACAAAG,0.0861
16,CAAATCAA,0.126
17,CCGCACAC,-0.0527
18,CAAGTATG,0.174
19,TCGAGCGA,0.121
20,GAAACGGA,0.202
21,GGCCACAA,-0.00651
22,CGAAGCCC,-0.167
23,AAGCAGTG,-0.137
24,CGCAGGCC,0.0695
25,CGCGCGTC,0.242

row,Sequence,PBM E-score
1,CGCAGCGA,0.0945
2,ATATGAGG,-0.0544
3,ATTGTCGC,0.344
4,CCTCTATA,-0.229
5,ACGAAAAA,0.23
6,CCCCGCAG,-0.105
7,GGGTCCCA,-0.216
8,CCGGCACG,-0.0469
9,AAAGCTAG,0.0353
10,CTCGAGGC,-0.143
11,CGGCTAAG,0.0144
12,ACTGTATG,0.0365
13,CGGCCAGA,0.0515
14,ACGGCTAG,-0.218
15,GGTGACTA,-0.074
16,AACCCATT,0.13
17,CCTGATGC,0.147
18,ATACCCAG,-0.149
19,ATTGAACA,0.124
20,CCCGAGAA,0.0155
21,AGGTGACG,-0.168
22,AAGAGTCG,0.00939
23,CGTGTAGA,-0.0556
24,CACGTCAC,-0.02
25,GGGATCCA,0.00832

row,Sequence,PBM E-score
1,ATATAACG,0.101
2,CGTACGGC,-0.134
3,CAATATAA,0.166
4,TGCGAGCA,-0.0671
5,TGCAAGAA,0.0972
6,CCTCCGAG,-0.0927
7,GGATCGGA,0.072
8,GAATGGAA,0.124
9,AAGGGTAA,-0.0625
10,CCAGAGGA,-0.0856
11,AAATCAGG,-0.0179
12,CCGAACGC,0.158
13,ACACGAGG,-0.0456
14,GATGGTCA,-0.0299
15,CGAAATCG,0.0598
16,CTGAACAA,0.0941
17,CTTAGATC,0.0107
18,CGCTCCCG,-0.226
19,CTGTGCCA,-0.0517
20,CGCGCCGC,0.13
21,CATGGACG,0.137
22,ACCAACCC,-0.122
